# According to the supplement of paper PMC8728848:
# Some of the results follow.
# Columns and labels:
# Assay in all cases: glycan array binding signal (z-score within array); higher = stronger binding
# Conditions in all cases: glycan notation: IUPAC condensed, linker removed
# Neu5Gc(a2-6)GalNAc = molecular target: Neu5Gc(a2-6)GalNAc
# Procedure, shortened: (§1)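 The binding signal is a Z-score computed within each array and averaged over linkers. Arrays of the same protein sequence at different concentrations or buffers were also averaged together. Data originate from 3228 arrays in the Consortium for Functional Glycomics database, kept only where the protein sequence was available.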
# Rha(a1-6)Glc = molecular target: Rha(a1-6)Glc
# Procedure, shortened: as §1
# [1] = molecular target: Xyl(a1-6)Glc(b1-4)[Xyl(a1-6)]Glc(b1-4)[Xyl(a1-6)]Glc(b1-4)Glc
# Procedure, shortened: as §1
# [2] = molecular target: Xyl(b1-2)[Man(a1-3)][Man(a1-6)]Man(b1-4)GlcNAc(b1-4)GlcNAc
# Procedure, shortened: as §1
# [3] = molecular target: Xyl(b1-2)[Man(a1-3)][Man(a1-6)]Man(b1-4)GlcNAc(b1-4)[Fuc(a1-3)]GlcNAc
# Procedure, shortened: as §1
# [4] = molecular target: Xyl(b1-4)Xyl(b1-4)Xyl(b1-4)Xyl(b1-4)Xyl
# Procedure, shortened: as §1
# [5] = molecular target: Xyl(b1-4)Xyl(b1-4)Xyl(b1-4)Xyl(b1-4)Xyl(b1-4)Xyl
# Procedure, shortened: as §1
binder,measurement,setting,value
"ZG16p (Homo sapiens), O60844 (protein) ARSSSYSGEYGGGGGKRFSHSGNQLDGPITALRVRVNTYYIVGLQVRYGKVWSDYVGGRNGDLEEIFLHPGESVIQVSGKYKWYLKKLLFVTDKGRYLSFGKDSGTSFNAVPLHPNTVLRFISGRSGSLIDAIGLHWDVYPSSCSRC",glycan array binding signal (z-score),Neu5Gc(a2-6)GalNAc,-0.328
same,glycan array binding signal (z-score),Rha(a1-6)Glc,-0.078
same,glycan array binding signal (z-score),[1],-0.328
same,glycan array binding signal (z-score),[2],-0.216
same,glycan array binding signal (z-score),[3],-0.369
same,glycan array binding signal (z-score),[4],-0.328
same,glycan array binding signal (z-score),[5],-0.328
